In all, about 33,000 sequences were measured (“E-score (-0.5 to 0.5)”: median about -0.054, highest 2% from about 0.35 on). This is one part of the list.
biological target: T1, Stb5 (UniProt P38699); assay: PBM E-score (8-mer binding enrichment) (E-score (-0.5 to 0.5)); higher = stronger / more preferred TF binding; most listed sequences are background and not binding sites; conditions: protein concentration: 200 nM; construct: GST-full length
T1 sequence: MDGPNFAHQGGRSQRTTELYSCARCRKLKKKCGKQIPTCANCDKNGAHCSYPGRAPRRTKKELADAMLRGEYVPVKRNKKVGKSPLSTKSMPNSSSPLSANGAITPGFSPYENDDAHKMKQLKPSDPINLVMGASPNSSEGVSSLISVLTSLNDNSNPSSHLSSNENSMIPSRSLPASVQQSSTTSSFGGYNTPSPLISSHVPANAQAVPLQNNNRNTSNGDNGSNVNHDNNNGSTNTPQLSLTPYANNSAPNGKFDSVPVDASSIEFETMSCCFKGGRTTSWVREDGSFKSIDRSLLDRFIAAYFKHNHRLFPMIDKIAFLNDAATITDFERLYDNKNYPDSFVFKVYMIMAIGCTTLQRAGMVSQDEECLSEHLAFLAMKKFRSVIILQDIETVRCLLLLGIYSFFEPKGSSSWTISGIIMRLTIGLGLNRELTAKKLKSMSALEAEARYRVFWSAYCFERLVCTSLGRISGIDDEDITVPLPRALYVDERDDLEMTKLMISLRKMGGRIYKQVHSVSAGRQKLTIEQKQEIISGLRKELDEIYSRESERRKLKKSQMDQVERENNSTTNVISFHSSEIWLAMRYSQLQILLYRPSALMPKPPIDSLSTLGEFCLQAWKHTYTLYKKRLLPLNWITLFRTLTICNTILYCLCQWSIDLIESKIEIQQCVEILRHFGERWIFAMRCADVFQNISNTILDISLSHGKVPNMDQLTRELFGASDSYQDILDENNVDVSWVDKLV
In short: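 Yeast transcription factors, full-length or as DNA-binding domains, were expressed with a GST tag using PURExpress in vitro transcription/translation. At about 100-200 nM they were applied to universal all-10-mer Agilent arrays, double-stranded by primer extension on fresh or once-stripped slides. Fluorescent anti-GST detected bound protein, and masliner normalised the scans. E-scores for ungapped eight-base words, pooled with reverse complements, came from the Universal PBM Analysis Suite.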

Sequence	PBM E-score
ATTTTATA	0.0929
AGTTGTAA	-0.192
AGCAATGG	0.0681
GCTTCTAC	-0.0648
ATGGTGAG	-0.136
GACCAGTC	-0.0453
AGGACAGA	-0.218
CTTGAATA	-0.0858
CCTCCCAA	-0.0762
GGAGGAGA	-0.149
CAAATTGC	-0.121
ACGCTGCT	-0.0899
GAACTAGA	-0.0192
AATGCGGG	0.23
CAGACATC	-0.148
ATGGAAGC	-0.183
ATTAGGAG	-0.109
ACAGTGAT	-0.196
CCGATAAC	0.295
GTTTTGAA	-0.263
GGCGGTAA	0.385
AAGGTTCC	-0.0938
ATCGCACC	0.27
CCAAGTGA	-0.199
GGCGTACC	0.0465

Sequence	PBM E-score
CATAGATA	-0.125
TTCGCGAA	0.0501
CGGAAAGC	-0.0296
ATCTGCCC	0.128
AAACTTAG	0.0147
TCGATACA	-0.00918
CAGGCTGC	-0.194
GTATTAAA	0.191
CATCGCTC	-0.00533
CCTAACAA	-0.157
TAACGGTA	0.136
TACTTTGA	-0.207
GGGTCCGA	0.332
CCTGATAA	-0.0146
CCCCTAAA	0.0172
GGATCGCA	-0.0659
CATGGAGA	-0.245
CCAGGAGA	-0.246
ATGGCTGC	-0.162
GTCTAGTA	-0.152
CCTAATAC	-0.034
ACTAGTTA	-0.164
ACGGAACG	0.0455
TCAGAAGA	-0.148
CTTATAAA	0.0811

Sequence	PBM E-score
CGCAAACA	-0.0985
CCCCTTGC	-0.297
CAGTGGCC	-0.124
CTCCTGTA	0.0419
CAAATAGC	0.00995
ACGACCGC	0.269
AAGGTCGA	-0.0719
GGTAGTAA	0.0863
GGTCGAAC	-0.0558
GTATCTCA	-0.0447
GCGCGCTA	0.112
AGATTGCG	-0.0306
CACCGTCA	0.333
AGTCATAA	0.0146
CTGGGAAA	-0.125
CAGAGCTG	-0.124
AATCAGAC	-0.173
AGATGACA	-0.219
TCATCTAA	-0.0557
GGAGAAAA	0.226
CCACAACG	0.146
TATCCGGA	0.265
CATCCACG	-0.0788
CCGGGGCG	0.302
CAATCGTG	-0.129

Sequence	PBM E-score
ATTCTTTA	-0.135
GCCATGCA	-0.0118
GCCGTAAA	0.278
CGCGTCCA	-0.0865
GGATACCC	0.0609
CGCCTTTC	0.0594
ATAAATGA	-0.243
TAATTGAA	0.0222
AATCCCAT	-0.042
GATCCCGC	0.232
CGAGATCG	0.0313
CCAGCGCC	0.104
AGACGAAA	0.0569
AAGATGCA	-0.283
CCGAGTCC	0.0504
GTACCACA	-0.171
CGGGCAAC	0.0447
CATAATAG	-0.00555
CCATATCA	-0.0191
CGACCCGC	0.198
AGCTTCAT	-0.0104
ACGCCTGG	0.0202
GTTTTTTA	-0.0247
GCTTCTCA	-0.109
CCGGTAGG	0.184

Sequence	PBM E-score
AGTCTTTC	-0.273
CCTCGGGA	0.0973
AACTACTC	0.017
CACTCGGC	0.165
AACTTTAC	0.0785
ATGCACCA	-0.08
AAGCGAAT	-0.144
ATAAGTTC	0.177
CCCGACGG	0.437
CATCACAA	-0.234
TATCGCCA	0.0895
ACAAGTCT	-0.32
TATCGACA	-0.23
CACTCGTC	-0.00096
AGACATAT	-0.25
GTGATCCA	-0.0848
GAACTACA	-0.0629
AAAGCCGG	0.286
CGACATCA	0.0974
AGCGGCGC	0.363
AGATAGTA	-0.0862
GGGAGCCA	-0.244
GAAGGGTC	-0.132
GCCCTTAA	0.191
AACAAGAG	-0.152

Sequence	PBM E-score
CATGCCAC	-0.0849
AAAATTAA	0.00863
CTTTCACA	-0.0931
GCGGCCTA	0.178
CTACTCAG	-0.216
TACGTGAA	-0.13
CTAAGGGA	-0.0323
AGCGGTCC	0.327
AATGCCTG	-0.102
ACGCTCCC	-0.0325
AAGCCATA	-0.327
TCTTTTCA	-0.0123
GAACGGTC	0.192
AATATATC	0.171
ATTACCAC	-0.0328
AGGAAAAT	0.015
AACTGACA	-0.194
GAAGCTTA	-0.173
CGGCACCA	0.394
GAGACGGC	-0.00918
CTATGTAC	-0.172
AATACCAA	-0.0935
GGATCAGA	-0.166
GATTAAGA	0.0302
AACTAATC	0.027

Sequence	PBM E-score
ATCTAGAT	-0.335
ACAAGTCC	0.154
AGGTTTGG	-0.148
CAGTGCCA	-0.249
CTCTTAGC	-0.056
ATGAACTC	-0.133
ATCAGTCA	-0.13
GAATAACA	0.163
GACCACTA	-0.272
CTCTATGA	-0.245
AGGAGAAA	-0.166
AATAGACA	-0.221
AAATTGCG	0.124
GTGTACAA	0.0725
GGCTTTAC	0.287
ACCGGAGT	0.347
CGTTTGAC	-0.0143
AAATTATC	-0.0238
GACGTAAC	-0.00555
AGATTGAC	-0.0509
GTGTAGGA	0.0113
GAAGGATA	0.00673
